Laboratory results taken from patent publication US20250361279A1 (Hoffmann-La Roche, published 2025).
Where a chain is given by its changes, count along the chain named. Names and notes keep the numbering of the source. Read-outs that look alike come from different tables or passages of the source. Blank lines part the entries; values can stand above or below the binder they belong to.

How the values were obtained:
Assay in all cases: cell-based or functional assay
[1] = target: T1, IL-7 receptor (IL-7R alpha chain and common gamma chain) on human T cells (human, UniProt P16871 21-459; P31785 23-369)
T1 sequence (looked up) 1: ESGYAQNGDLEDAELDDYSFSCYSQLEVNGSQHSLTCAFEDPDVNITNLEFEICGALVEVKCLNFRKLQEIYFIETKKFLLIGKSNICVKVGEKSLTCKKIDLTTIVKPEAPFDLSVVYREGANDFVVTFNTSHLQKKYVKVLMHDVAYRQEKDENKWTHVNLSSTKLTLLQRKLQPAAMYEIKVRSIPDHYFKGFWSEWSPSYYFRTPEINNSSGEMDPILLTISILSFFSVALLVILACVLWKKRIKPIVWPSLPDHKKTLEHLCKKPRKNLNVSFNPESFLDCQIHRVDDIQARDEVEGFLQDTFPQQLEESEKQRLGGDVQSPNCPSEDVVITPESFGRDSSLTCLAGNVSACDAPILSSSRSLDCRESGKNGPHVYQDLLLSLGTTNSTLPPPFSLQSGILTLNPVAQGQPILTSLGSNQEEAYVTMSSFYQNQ
T1 sequence (looked up) 2: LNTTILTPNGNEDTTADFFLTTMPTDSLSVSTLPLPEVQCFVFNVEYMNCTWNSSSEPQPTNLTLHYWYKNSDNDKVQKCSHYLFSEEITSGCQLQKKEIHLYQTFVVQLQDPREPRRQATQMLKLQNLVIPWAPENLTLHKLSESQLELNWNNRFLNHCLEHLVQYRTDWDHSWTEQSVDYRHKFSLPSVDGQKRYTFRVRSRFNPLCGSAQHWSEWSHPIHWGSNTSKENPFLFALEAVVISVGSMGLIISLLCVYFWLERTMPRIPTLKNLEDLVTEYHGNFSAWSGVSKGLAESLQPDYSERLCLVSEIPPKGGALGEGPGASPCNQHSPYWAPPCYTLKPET

[2] = target: T2, human PD-1 on activated CD4 T cells (human, UniProt Q15116 25-288)
[3] = target: T1, IL-7 receptor (IL-7R alpha chain and …); remark: listed apart in the source
[4] = target: T2, human PD-1 on activated CD4 T cells; remark: listed apart in the source
[5] = target: T1, IL-7 receptor (IL-7R alpha chain and …); remark: listed apart in the source
[6] = target: T1, IL-7 receptor (IL-7R alpha chain and …); remark: listed apart in the source
[7] = target: T2, human PD-1 on activated CD4 T cells; remark: listed apart in the source
[8] = target: T1, IL-7 receptor (IL-7R alpha chain and …); remark: listed apart in the source
[9] = target: T2, human PD-1 on activated CD4 T cells; remark: listed apart in the source

- Potency reduction to PD1-IL7wt: EC50 (PD1+)/EC50 (PD1-IL7wt) [1]: 10.8 fold
- STAT-5P AUC, PD1+ CD4 T cells [1]: 74.7
- STAT-5P AUC, PD1-blocked CD4 T cells [1]: 42.4
- Cis-delivery: fold increase in EC50, EC50 [with PD1bl]/EC50 [no PD1bl] [2]: 38 fold
- Delta AUC (PD1+ vs PD1bl.) [2]: 32.4
- Potency reduction to PD1-IL7wt: EC50 (PD1+)/EC50 (PD1-IL7wt) [3]: 26.5 fold
- STAT-5P AUC, PD1+ CD4 T cells [3]: 58.3
- STAT-5P AUC, PD1-blocked CD4 T cells [3]: 17.4
- Cis-delivery: fold increase in EC50, EC50 [with PD1bl]/EC50 [no PD1bl] [4]: 52.5 fold
- Delta AUC (PD1+ vs PD1bl.) [4]: 41
- Percentage of rescued Granzyme B production by Tconv (Treg suppression assay, 6 nM) [5]: 94.7%
- Percentage of suppressed Granzyme B production by Tconv (Treg suppression assay, 6 nM) [5]: 5.3%
B1: P1AH6021 (new PD1-IL7v, fully glycosylated, PD1-ILv2.6; IL7 E13K, G85E; (G2SG2)3 linker) (other)
light: DIVMTQSPDSLAVSLGERATINCKASESVDTSDNSFIHWYQQKPGQSPKLLIYRSSTLESGVPDRFSGSGSGTDFTLTISSLQAEDVAVYYCQQNYDVPWTFGQGTKVEIKRTVAAPSVFIFPPSDEQLKSGTASVVCLLNNFYPREAKVQWKVDNALQSGNSQESVTEQDSKDSTYSLSSTLTLSKADYEKHKVYACEVTHQGLSSPVTKSFNRGEC
heavy 1: EVQLLESGGGLVQPGGSLRLSCAASGFSFSSYTMSWVRQAPGKGLEWVATISGGGRDIYYPDSVKGRFTISRDNSKNTLYLQMNSLRAEDTAVYYCVLLTGRVYFALDSWGQGTLVTVSSASTKGPSVFPLAPSSKSTSGGTAALGCLVKDYFPEPVTVSWNSGALTSGVHTFPAVLQSSGLYSLSSVVTVPSSSLGTQTYICNVNHKPSNTKVDKKVEPKSCDKTHTCPPCPAPEAAGGPSVFLFPPKPKDTLMISRTPEVTCVVVDVSHEDPEVKFNWYVDGVEVHNAKTKPREEQYNSTYRVVSVLTVLHQDWLNGKEYKCKVSNKALGAPIEKTISKAKGQPREPQVCTLPPSRDELTKNQVSLSCAVKGFYPSDIAVEWESNGQPENNYKTTPPVLDSDGSFFLVSKLTVDKSRWQQGNVFSCSVMHEALHNHYTQKSLSLSPG
heavy 2: EVQLLESGGGLVQPGGSLRLSCAASGFSFSSYTMSWVRQAPGKGLEWVATISGGGRDIYYPDSVKGRFTISRDNSKNTLYLQMNSLRAEDTAVYYCVLLTGRVYFALDSWGQGTLVTVSSASTKGPSVFPLAPSSKSTSGGTAALGCLVKDYFPEPVTVSWNSGALTSGVHTFPAVLQSSGLYSLSSVVTVPSSSLGTQTYICNVNHKPSNTKVDKKV[sequence of human IgG1 Fc with changes omitted]GGSGGGGSGGGGSGGDCDIEGKDGKQYKSVLMVSIDQLLDSMKEIGSNCLNNEFNFFKRHICDANKEGMFLFRAARKLRQFLKMNSTGDFDLHLLKVSEETTILLNCTGQVKGRKPAALGEAQPTKSLEENKSLKEQKKLNDLCFLKRLLQEIKTCWNKILMGTKEH

- Percentage of rescued Granzyme B production by Tconv (Treg suppression assay, 6 nM) [5]: 42.1%
- Percentage of suppressed Granzyme B production by Tconv (Treg suppression assay, 6 nM) [5]: 57.9%
- Potency reduction to PD1-IL7wt: EC50 (PD1+)/EC50 (PD1-IL7wt) [6]: 119 fold
- STAT-5P AUC, PD1+ CD4 T cells [6]: 26.5
- STAT-5P AUC, PD1-blocked CD4 T cells [6]: 6.9
- Cis-delivery: fold increase in EC50, EC50 [with PD1bl]/EC50 [no PD1bl] [7]: 31.4 fold
- Delta AUC (PD1+ vs PD1bl.) [7]: 19.5
B2: P1AH6005 (new PD1-IL7v, fully glycosylated, PD1-IL7v2.2; IL7 D74K, G85K; (G2SG2)3 linker) (other)
light: B1 light
heavy 1: B1 heavy 1
heavy 2: EVQLLESGGGLVQPGGSLRLSCAASGFSFSSYTMSWVRQAPGKGLEWVATISGGGRDIYYPDSVKGRFTISRDNSKNTLYLQMNSLRAEDTAVYYCVLLTGRVYFALDSWGQGTLVTVSSASTKGPSVFPLAPSSKSTSGGTAALGCLVKDYFPEPVTVSWNSGALTSGVHTFPAVLQSSGLYSLSSVVTVPSSSLGTQTYICNVNHKPSNTKVDKKV[sequence of human IgG1 Fc with changes omitted]GGSGGGGSGGGGSGGDCDIEGKDGKQYESVLMVSIDQLLDSMKEIGSNCLNNEFNFFKRHICDANKEGMFLFRAARKLRQFLKMNSTGKFDLHLLKVSEKTTILLNCTGQVKGRKPAALGEAQPTKSLEENKSLKEQKKLNDLCFLKRLLQEIKTCWNKILMGTKEH

- Potency reduction to PD1-IL7wt: EC50 (PD1+)/EC50 (PD1-IL7wt) [6]: 14.8 fold
- STAT-5P AUC, PD1+ CD4 T cells [6]: 82.5
- STAT-5P AUC, PD1-blocked CD4 T cells [6]: 43.3
- Cis-delivery: fold increase in EC50, EC50 [with PD1bl]/EC50 [no PD1bl] [7]: 8.7 fold
- Delta AUC (PD1+ vs PD1bl.) [7]: 39.2
B3: P1AH6008 (new PD1-IL7v, fully glycosylated; IL7 V18K, Q136K; (G2SG2)3 linker) (other)
light: B1 light
heavy 1: B1 heavy 1
heavy 2: EVQLLESGGGLVQPGGSLRLSCAASGFSFSSYTMSWVRQAPGKGLEWVATISGGGRDIYYPDSVKGRFTISRDNSKNTLYLQMNSLRAEDTAVYYCVLLTGRVYFALDSWGQGTLVTVSSASTKGPSVFPLAPSSKSTSGGTAALGCLVKDYFPEPVTVSWNSGALTSGVHTFPAVLQSSGLYSLSSVVTVPSSSLGTQTYICNVNHKPSNTKVDKKV[sequence of human IgG1 Fc with changes omitted]GGSGGGGSGGGGSGGDCDIEGKDGKQYESVLMKSIDQLLDSMKEIGSNCLNNEFNFFKRHICDANKEGMFLFRAARKLRQFLKMNSTGDFDLHLLKVSEGTTILLNCTGQVKGRKPAALGEAQPTKSLEENKSLKEQKKLNDLCFLKRLLKEIKTCWNKILMGTKEH

- Potency reduction to PD1-IL7wt: EC50 (PD1+)/EC50 (PD1-IL7wt) [8]: 71.8 fold
- STAT-5P AUC, PD1+ CD4 T cells [8]: 20
- STAT-5P AUC, PD1-blocked CD4 T cells [8]: 2.7
- Cis-delivery: fold increase in EC50, EC50 [with PD1bl]/EC50 [no PD1bl] [9]: 4760 fold
- Delta AUC (PD1+ vs PD1bl.) [9]: 17.3
B4: P1AJ0773 (PD1-IL7var18_21, fully glycosylated; PD1 binder FV020519; IL7 K81E, G85E; (G2SG2)3 linker) (other)
light: B1 light with S55A
heavy 1: B1 heavy 1 with A49S, T50A
heavy 2: EVQLLESGGGLVQPGGSLRLSCAASGFSFSSYTMSWVRQAPGKGLEWVSAISGGGRDIYYPDSVKGRFTISRDNSKNTLYLQMNSLRAEDTAVYYCVLLTGRVYFALDSWGQGTLVTVSSASTKGPSVFPLAPSSKSTSGGTAALGCLVKDYFPEPVTVSWNSGALTSGVHTFPAVLQSSGLYSLSSVVTVPSSSLGTQTYICNVNHKPSNTKVDKKV[sequence of human IgG1 Fc with changes omitted]GGSGGGGSGGGGSGGDCDIEGKDGKQYESVLMVSIDQLLDSMKEIGSNCLNNEFNFFKRHICDANKEGMFLFRAARKLRQFLKMNSTGDFDLHLLEVSEETTILLNCTGQVKGRKPAALGEAQPTKSLEENKSLKEQKKLNDLCFLKRLLQEIKTCWNKILMGTKEH
